Some of the results follow. Sequences were assembled here from the parent chain. Values near 0.05 are background.
B1: TEV protease; numbered along this chain (parent)
chain: MGESLFKGPRDYNPISSSICHLTNESDGHTTSLYGIGFGPFIITNKHLFRRNNGTLVVQSLHGVFKVKDTTTLQQHLVDGRDMIIIRMPKDFPPFPQKLKFREPQREERICLVTTNFQTKSMSSMVSDTSCTFPSGDGIFWKHWIQTKDGQCGSPLVSTRDGFIVGIHSASNFTNTNNYFTSVPKNFMELLTNQEAQQWVSGWRLNADSVLWGGHKVFMVKPEEPFQPVKEATQL

Variants of: B1
Experiment: raw area under fraction-flipped curve 0-4 h after induction (AUC4h, not background-subtracted), DNA-recorder readout of cleavage of the substrate (dimensionless); higher = more cleavage of the substrate by the protease variant
Details: temperature: 34 °C; time window: 0-4 h after rhamnose induction
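Also: Bxb1 expression induced with 0.2% (w/v) L-rhamnose at OD600 near 0.5, cultures sampled hourly, flipped fraction per protease–substrate barcode pair counted by paired-end Illumina sequencing.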

| Variant | area with substrate ENLDFQS | area with substrate ENLFFQS | area with substrate ENLGFQS | area with substrate ENLKFQS | area with substrate ENLPFQS | area with substrate ENLRFQS | area with substrate ENLSFQS | area with substrate ENLTFQS | area with substrate ENLVFQS | area with substrate ENLWFQS | area with substrate ENLEFQS | area with substrate ENLHFQS | area with substrate ENLLFQS | area with substrate ENLNFQS | area with substrate ENLQFQS | area with substrate ENLIFQS | area with substrate ENLMFQS |
| --- | --- | --- | --- | --- | --- | --- | --- | --- | --- | --- | --- | --- | --- | --- | --- | --- | --- |
| MGESLFKGPRDYNPISSSICHLTNESDGHTTSLYGIGFGPFIITNKHLFRRNNGTLVVQSLHGVFKVKDTTTLQQHLVDGRDMIIIRMPKDFPPFPQKLKFREPQREERICLVTTNFQTKSMSSMVSDTSCTFPSGDGIFWKHWIQTKDGQCGSPLVSTRDGFIVGIHSASNFTNTNNYFTSVPKNFMELLTNQEAQQWVSGWRLNCDSVLWGGHKVFMVKPEEPFQPVKEATQL [A207C] | 0.0078 | 0.0771 | 0.0603 | 0.0591 | 0.0398 | 0.0679 | 0.0589 | 0.0622 | 0.0784 | 0.0058 | – | – | – | – | – | – | – |
| MGESLFKGPRDYNPISSSICHLTNESDGHTTSLYGIGFGPFIITNKHLFRRNNGTLVVQSLHGVFKVKDTTTLQQHLVDGRDMIIIRMPKDFPPFPQKLKFREPQREERICLVTTNFQTKSMSSMVSDTSCTFPSGDGIFWKHWIQTKDGQCGSPLVSTRDGFIVGIHSASNFTNTNNYFTSVPKNFMELLSNQEAQQWVSGWRLNADSVLWGGHKVFMVKPEEPFQPVKEATQL [T192S] | 0.048 | 0.0834 | – | 0.0693 | 0.0971 | – | – | – | 0.0683 | 0.0866 | 0.0535 | 0.023 | 0.0991 | 0.0656 | 0.0629 | – | – |
| MGESLFKGPRDYNPISSSICHLTNESDGHTTSLYGIGFGPFIITNKHLFRRNNGTLVVQSLHGVFKVKDTTTLQQHLVDGRDMIIIRMPKDFPPFPQKLKFREPQREERICLVTTNFQTKSMSSMVSDTSCTFPSGDGIFWKHWIQTKDGQCGSPLVSTRDGFIVGIHSASNFTNTNNYFTSVPKNFMELLTNQEAQQWVSGWRLNAMSVLWGGHKVFMVKPEEPFQPVKEATQL [D208M] | 0.0644 | 0.0763 | – | 0.0606 | 0.0564 | 0.0374 | 0.0397 | – | – | 0.0687 | 0.0741 | 0.0619 | 0.057 | 0.0617 | 0.0447 | 0.0598 | 0.0789 |
| MGESLFKGPRDYNPISSSICHLTNESDGHTTSLYGIGFGPFIITNKHLFRRNNGTLVVQSLHGVFKVKDTTTLQQHLVDGRDMIIIRMPKDFPPFPQKLKFREPQREERICLVTTNFQTKSMSSMVSDTSCTFPSGDGIFWKHWIQTKDGQCGSPLVSTRDGFIVGIHSASNFTNTNNYFTSVPKNFMELLTNQYAQQWVSGWRLNADSVLWGGHKVFMVKPEEPFQPVKEATQL [E195Y] | 0.0712 | 0.078 | – | 0.0832 | – | – | – | 0.0695 | 0.0772 | – | – | – | – | – | – | – | – |
| MGESLFKGPRDYNPISSSICHLTNESDGHTTSLYGIGFGPFIITNKHLFRRNNGTLVVQSLHGVFKVKDTTTLQQHLVDGRDMIIIRMPKDFPPFPQKLKFREPQREERICLVTTNFQTKSMSSMVSDTSCTFPSGDGIFWKHWIQTKDGQCGSPLVSTRDGFIVGIHSASNFTNTNNYFTSVYKNFMELLTNQEAQQWVSGWRLNADSVLWGGHKVFMVKPEEPFQPVKEATQL [P184Y] | 0.0676 | – | 0.0746 | 0.0544 | 0.0498 | 0.0674 | 0.0477 | – | – | 0.0506 | – | – | – | 0.0617 | – | 0.0515 | 0.0638 |
| MGESLFKGPRDYNPISSSICHLTNESDGHTTSLYGIGFGPFIITNKHLFRRNNGTLVVQSLHGVFKVKDTTTLQQHLVDGRDMIIIRMPKDFPPFPQKLKFREPQREERICLVTTNFQTKSMSSMVSDTSCTFPSGDGIFWKHWIQTKDGQCGSPLVSTRDGFIVGIHSASNFTNTNNYFTSVRKNFMELLTNQEAQQWVSGWRLNADSVLWGGHKVFMVKPEEPFQPVKEATQL [P184R] | 0.0443 | 0.0745 | – | 0.0629 | 0.0066 | 0.0724 | 0.0558 | – | – | – | – | 0.0395 | – | – | 0.05 | – | – |
| MGESLFKGPRDYNPISSSICHLTNESDGHTTSLYGIGFGPFIITNKHLFRRNNGTLVVQSLHGVFKVKDTTTLQQHLVDGRDMIIIRMPKDFPPFPQKLKFREPQREERICLVTTNFQTKSMSSMVSDTSCTFPSGDGIFWKHWIQTKDGQCGSPLVSTRDGFIVGIHSASNFTNTNNMFTSVPKNFMELLTNQEAQQWVSGWRLNADSVLWGGHKVFMVKPEEPFQPVKEATQL [Y179M] | 0.067 | 0.0602 | – | 0.0596 | 0.058 | – | 0.0686 | – | – | – | 0.0596 | 0.0644 | 0.0632 | 0.0656 | 0.056 | 0.0442 | – |
| MGESLFKGPRDYNPISSSICHLTNESDGHTTSLYGIGFGPFIITNKHLFRRNNGTLVVQSLHGVFKVKDTTTLQQHLVDGRDMIIIRMPKDFPPFPQKLKFREPQREERICLVTTNFQTKSMSSMVSDTSCTFPSGDGIFWKHWIQTKDGQCGSPLVSTRDGFIVGIHSASNFTNTNNYFTSVPKNFMELLTNQEAQQWFSGWRLNADSVLWGGHKVFMVKPEEPFQPVKEATQL [V200F] | 0.0574 | 0.0997 | 0.0423 | 0.0731 | 0.0627 | – | 0.0503 | – | 0.0779 | – | – | 0.048 | 0.0638 | 0.054 | – | – | 0.0591 |
| MGESLFKGPRDYNPISSSICHLTNESDGHTTSLYGIGFGPFIITNKHLFRRNNGTLVVQSLHGVFKVKDTTTLQQHLVDGRDMIIIRMPKDFPPFPQKLKFREPQREERICLVTTNFQTKSMSSMVSDTSCTFPSGDGIFWKHWIQTKDGQCGSPLVSTRDGFIVGIHSASNFTNTNNYFTSVPKNFMELLTNQEAQQWYSGWRLNADSVLWGGHKVFMVKPEEPFQPVKEATQL [V200Y] | 0.0861 | 0.0609 | 0.0921 | 0.0621 | – | 0.0609 | 0.0598 | – | 0.0692 | – | 0.0709 | 0.0757 | 0.0652 | 0.0698 | – | – | 0.0601 |
| MGESLFKGPRDYNPISSSICHLTNESDGHTTSLYGIGFGPFIITNKHLFRRNNGTLVVQSLHGVFKVKDTTTLQQHLVDGRDMIIIRMPKDFPPFPQKLKFREPQREERICLVTTNFQTKSMSSMVSDTSCTFPSGDGIFWKHWIQTKDGQCGSPLVSTRDGFIVGIHSASNFTNTNNYFTSVPKNFMELLTNQEAYQWVSGWRLNADSVLWGGHKVFMVKPEEPFQPVKEATQL [Q197Y] | 0.0696 | – | – | 0.0692 | 0.0757 | – | – | – | – | – | – | – | – | 0.073 | – | 0.0741 | – |
